# Measurements as given in PubChem BioAssay (NCATS).
# Where “and” joins values, the source holds several entries; their conditions need not be identical. Equal entries are not always repeated. The list shows a part of the results. The main result of the screen is listed elsewhere. These columns were measured beside it and carry no call. The list favours compounds with an active or inconclusive main result. The note in brackets gives the kind of curve behind each potency; many fits are weak.
# Assay: qHTS Assay for Lipid Storage Modulators (AID 1519)
# Details: Drosophila S3 cells, BODIPY lipid droplet/cell ratio, laser cytometry, cells loaded with oleic acid
# Method in brief: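 Cells seeded at 5,000 per well were treated with compounds over a concentration series and loaded with oleic acid (400 uM, as added). Lipid droplet fluorescence (488 nm excitation, 500-530 nm channel) was read by laser-scanning cytometry and normalized to 20 uM Triacsin C.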
# [1] = measured here: cell count channel max response
# [2] = measured here: cell number channel AC50
# [3] = measured here: lipid (BODIPY) channel AC50
# [4] = measured here: lipid channel max response
# Tags tell the direction and shape of the fitted curve.
Structure (SMILES),max response [1],AC50 [2],AC50 [3],max response [4]
Cc1cnc(CNc2nc(-c3cccc(NS(C)(=O)=O)c3)nc3ccccc23)cn1,34.5%,"0.282 µM [rising, full curve]","0.316 µM [rising, full curve]",42.4%
Cc1cnc(CNc2cc(-c3ccccc3C)ncn2)cn1,46.6%,"22.4 µM [rising, partial curve, poor fit]","14.1 µM [rising, partial curve, poor fit]",55.1%
O=c1c(-c2cccs2)nc2cncnc2n1Cc1ccc(F)cc1,5.79%,"1.26 µM [rising, partial curve, poor fit]","1 µM [rising, partial curve, poor fit]",-1.49%
COc1ccc2[nH]cc(CCNc3ccnc(-c4cccnc4)n3)c2c1,12.9%,"0.0501 µM [rising, full curve, poor fit]","0.0316 µM [rising, full curve, poor fit]",18.9%
COCCn1c(=O)c(-c2ccc(F)cc2)nc2cncnc21,35%,"2.51 µM [rising, full curve]","1.12 µM [rising, full curve]",49.3%
COc1ccc(Oc2ncc3nc(-c4cc(F)cc(F)c4)c(=O)n(C[C@H]4CCCO4)c3n2)cc1,11.2%,"3.55 µM [rising, single point]","4.47 µM [rising, single point]",-2.05%
CN(C)c1ncc2nc(-c3cccc(C#N)c3)c(=O)n(C[C@H]3CCCO3)c2n1,31.6%,"10 µM [rising, partial curve, poor fit]","5.62 µM [rising, partial curve, poor fit]",42.3%
O=C(c1ccco1)N1CCC2(CC1)CN(c1ncccn1)C2,29.4%,"3.16 µM [rising, partial curve, poor fit]","4.47 µM [rising, partial curve]",43.2%
COc1ccc(C(=O)N2CCC3(CC2)CN(c2cccc(-c4ccccc4)c2)C3)cc1,11.5%,"3.16 µM [rising, single point]","3.16 µM [rising, partial curve]",9.86%
C[C@H](O)CO[C@H]1[C@H]2O[C@H]3[C@H](O)[C@@H](O)[C@@H](O[C@H]4[C@H](O)[C@@H](O)[C@@H](O[C@H]5[C@H](O)[C@@H](O)[C@@H](O[C@H]6[C@H](O)[C@@H](OC[C@H](C)O)[C@@H](O[C@H]7[C@H](O)[C@@H](OC[C@H](C)O)[C@@H](O[C@H]8[C@H](O)[C@@H](O)[C@@H](O[C@@H]([C@@H]1O)[C@@H](CO)O2)O[C@@H]8CO)O[C@@H]7CO)O[C@@H]6CO)O[C@@H]5CO)O[C@@H]4CO)O[C@@H]3CO,-20.2%,"20 µM [rising, single point]","20 µM [rising, single point]",-23.6%
COc1ccc(-n2c(=O)c(-c3ccc(F)c(F)c3)nc3cncnc32)cc1,36.5%,"1.26 µM [rising, full curve, poor fit]","0.891 µM [rising, full curve]",41.2%
N#Cc1ccccc1-c1ccc2ncnc(NC3CC3)c2c1,35.7%,"1.58 µM [rising, partial curve]","1.12 µM [rising, partial curve]",43.7%
Cc1nc2cnc(Oc3ccccc3)nc2n(Cc2cccs2)c1=O,35.9%,"8.91 µM [rising, partial curve]","8.91 µM [rising, partial curve]",41.6%
COc1ccc2[nH]cc(CCNc3cc(-c4cccnc4)ncn3)c2c1,18.2%,"1.26 µM [rising, partial curve]","1.41 µM [rising, partial curve]",26.8%
COc1cc2ccc(=O)oc2c(O)c1O,62.6%,"31.6 µM [rising, partial curve]","31.6 µM [rising, partial curve, poor fit]",71.7%
O=c1c(-c2cccs2)nc2cnc(Oc3cccc(Cl)c3)nc2n1C[C@H]1CCCO1,12.2%,"4.47 µM [rising, partial curve]","22.4 µM [falling, single point]",-48.7%
COC(=O)/C=C\c1cc(O)ccc1O,67.9%,"35.5 µM [rising, single point]","31.6 µM [rising, partial curve, poor fit]",81.4%
CC(=O)Oc1c2c(c3c(c1CC=C(C)C)O[C@@]14C(=CC5CC1C(C)(C)OC4(C/C=C(\C)C(=O)O)C5=O)C3=O)OC(C)(CCC=C(C)C)C=C2 (stereo partly drawn),-52.3%,"31.6 µM [falling, single point]","11.2 µM [falling, partial curve]",-80.1%
O=C(O)c1cc(=O)c2c(Cl)cc(Cl)cc2[nH]1,5.16%,"15.8 µM [rising, single point]","15.8 µM [rising, single point]",5.56%

Structure (SMILES),max response [1],AC50 [2],AC50 [3],max response [4]
COc1ccc2[nH]cc(CCNc3nc(-c4cccc(C#N)c4)nc4ccccc34)c2c1,13.9%,"0.0794 µM [rising, full curve]","0.0631 µM [rising, full curve]",21.9%
COCCn1c(=O)c(-c2cccc(F)c2)nc2cncnc21,42.2%,"6.31 µM [rising, partial curve]","11.2 µM [rising, partial curve, poor fit]",45.1%
COc1cccc(-c2ccc3ncnc(N4CCOCC4)c3c2)c1,13.8%,"4.47 µM [rising, partial curve, poor fit]","8.91 µM [rising, partial curve, poor fit]",14.8%
COC(=O)N1CCC2(CC1)CN(C(=O)Nc1cccc(F)c1)C2,24.4%,"0.00708 µM [rising, full curve, poor fit]","0.0112 µM [rising, full curve, poor fit]",33%
O=c1c(CCc2ccccc2)nc2cnc(N3CCOCC3)nc2n1Cc1ccc(F)cc1,35.1%,"0.141 µM [rising, full curve, poor fit]","0.0631 µM [rising, full curve, poor fit]",41%
COc1cc(/C=C/C(=O)N2CCCCC2=O)cc(OC)c1OC,67.6%,"14.1 µM [rising, full curve]","14.1 µM [rising, partial curve, poor fit]",-27.4%
COc1cccc(Cn2c(=O)c(-c3ccc(Cl)cc3)nc3cnc(N4CCN(C)CC4)nc32)c1,-15.6%,"1.78 µM [rising, single point]","1.78 µM [rising, partial curve]",-19%
COc1ccc2c(=O)c(OC)c(-c3ccccc3)oc2c1,8.5%,"0.0398 µM [rising, full curve, poor fit]","0.0316 µM [rising, full curve]",14.5%
FC(F)(F)c1ccccc1-c1cc(NCc2cccs2)ncn1,37%,"5.62 µM [rising, partial curve]","3.98 µM [rising, partial curve]",40.2%
COc1ccc2[nH]c(C(=O)c3ccccc3)cc2c1,98.5%,"2.51 µM [rising, full curve]","1.78 µM [rising, full curve]",114%
Oc1cc2c(c(Cl)c1O)CCNC[C@H]2c1ccccc1,43.3%,"25.1 µM [rising, partial curve, poor fit]","25.1 µM [rising, partial curve]",50%
COc1cc2c(cc1OC)-c1cc3nc4ccccc4nc3n1C(C)(C)C2,50%,"3.98 µM [rising, full curve]","4.47 µM [rising, full curve]",-88.2%
O=c1c(-c2ccc(Cl)cc2)nc2cnc(Nc3ccccc3)nc2n1C[C@H]1CCCO1,-25.5%,"0.708 µM [falling, full curve]","1.41 µM [falling, full curve]",-65.1%
Cc1cnc(CNc2ccnc(-c3ccoc3)n2)cn1,12.3%,"3.98 µM [rising, partial curve, poor fit]","3.16 µM [rising, partial curve, poor fit]",25.4%
Cc1cnc(CNc2cc(-c3cccc(C#N)c3)ncn2)cn1,37.5%,"1.58 µM [rising, full curve]","1.58 µM [rising, full curve]",43.8%
COc1ccc(-n2c(=O)c(-c3ccccc3)nc3cncnc32)cc1,28.6%,"0.562 µM [rising, full curve, poor fit]","0.501 µM [rising, full curve]",35.8%
CC(C)(C)NCC(O)c1cc(O)cc(O)c1 (stereo not drawn),28.2% and -13.3%,"0.562 µM [falling, full curve, poor fit]","39.8 µM [rising, single point] and 562 nM [falling, full curve, poor fit]",39.1% and -12.7%
c1cc2c(cc1C1CCCCC1)c1c3n2CCN[C@H]3CCC1,34.4%,"11.2 µM [rising, full curve, poor fit]","11.2 µM [rising, single point]",7.92%
